Experimental data published in PMC9992711, “Two-step structural changes in M3 muscarinic receptor activation rely on the coupled Gq protein cycle” (Nature Communications, 2023).
These are yes or no findings as the source states them, for the method shown. In cells and extracts the contact can be indirect. Some entries that bind do so weakly or less than the wild type. For some of these results: Tags and fused reporters may be left off the sequences shown.

By UniProt entry, the sequences of proteins in these tests, tags left out. Where a name states a change or a piece, a line headed by the entry shows the natural chain unless it says otherwise.
UniProt P21279: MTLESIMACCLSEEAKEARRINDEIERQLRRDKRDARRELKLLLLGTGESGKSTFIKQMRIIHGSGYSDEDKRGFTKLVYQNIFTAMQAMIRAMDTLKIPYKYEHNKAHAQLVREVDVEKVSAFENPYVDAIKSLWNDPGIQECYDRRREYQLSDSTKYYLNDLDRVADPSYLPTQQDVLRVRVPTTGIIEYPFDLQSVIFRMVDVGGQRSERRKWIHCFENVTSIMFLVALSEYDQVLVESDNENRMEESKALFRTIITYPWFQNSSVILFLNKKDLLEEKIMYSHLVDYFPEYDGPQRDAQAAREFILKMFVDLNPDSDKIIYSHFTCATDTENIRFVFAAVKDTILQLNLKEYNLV

Columns and labels:
[1] = biological target: hM3R(3A)-EYFP (human) (UniProt P20309); assay: FRET or BRET; CFP/YFP photometry on single live HEK293T (tsA-201) cells; labelled pair with the remaining cognate G protein subunits co-transfected (GRK2 too for Gαq-CFP with Gβ1-YFP; only the two probes for hM3R-CFP with YFP-PLCβ1); 10 μM Oxo-M applied and washed out
[2] = biological target: hM3R-EYFP (human) (UniProt P20309); assay: as above
[3] = biological target: mouse Gαq-ECFP (mouse) (UniProt P21279); assay: as above
[4] = biological target: hM3R-Cerulean (human) (UniProt P20309); assay: as above
[5] = biological target: mouse Gαq-ECFP (mouse) (UniProt P21279); assay: FRET or BRET; as a3, in the presence of YM-254890 (inhibitor of GDP release from Gαq); 10 μM Oxo-M applied

For “Gαq(Q209L)-ECFP (from UniProt P21279 1-359)”, the binding [1] was “no binding” and the binding [2] was “binds”.

For “mouse Gαq-ECFP (from UniProt P21279 1-359)”, the binding [1] was “no binding” and the binding [2] was “binds”.

B1: rat EYFP-PLCβ1 (enzyme, UniProt P10687 1-1216)
chain: MAGAQPGVHALQLKPVCVSDSLKKGTKFVKWDDDSTIVTPIILRTDPQGFFFYWTDQNKETELLDLSLVKDARCGKHAKAPKDPKLRELLDVGNIGHLEQRMITVVYGPDLVNISHLNLVAFQEEVAKEWTNEVFSLATNLLAQNMSRDAFLEKAYTKLKLQVTPEGRIPLKNIYRLFSADRKRVETALEACSLPSSRNDSIPQEDFTPDVYRVFLNNLCPRPEIDNIFSEFGAKSKPYLTVDQMMDFINLKQRDPRLNEILYPPLKQEQVQVLIEKYEPNSSLAKKGQMSVDGFMRYLSGEENGVVSPEKLDLNEDMSQPLSHYFINSSHNTYLTAGQLAGNSSVEMYRQVLLSGCRCVELDCWKGRTAEEEPVITHGFTMTTEISFKEVIEAIAECAFKTSPFPILLSFENHVDSPKQQAKMAEYCRLIFGDALLMEPLEKYPLESGVPLPSPMDLMYKILVKNKKKSHKSSEGSGKKKLSEQASNTYSDSSSVFEPSSPGAGEADTESDDDDDDDDCKKSSMDEGTAGSEAMATEEMSNLVNYIQPVKFESFETSKKRNKSFEMSSFVETKGLEQLTKSPVEFVEYNKMQLSRIYPKGTRVDSSNYMPQLFWNAGCQMVALNFQTVDLAMQINMGMYEYNGKSGYRLKPEFMRRPDKHFDPFTEGIVDGIVANTLSVKIISGQFLSDKKVGTYVEVDMFGLPVDTRRKAFKTKTSQGNAVNPVWEEEPIVFKKVVLPSLACLRIAAYEEGGKFIGHRILPVQAIRPGYHYICLRNERNQPLMLPAVFVYIEVKDYVPDTYADVIEALSNPIRYVNLMEQRAKQLAALTLEDEEEVKKEADPGETSSEAPSETRTTPAENGVNHTATLAPKPPSQAPHSQPAPGSVKAPAKTEDLIQSVLTEVEAQTIEELKQQKSFVKLQKKHYKEMKDLVKRHHKKTTELIKEHTTKYNEIQNDYLRRRAALEKSAKKDSKKKSEPSSPDHGSSAIEQDLAALDAEMTQKLIDLKDKQQQQLLNLRQEQYYSEKYQKREHIKLLIQKLTDVAEECQNNQLKKLKEICEKEKKELKKKMDKKRQEKITEAKSKDKSQMEEEKTEMIRSYIQEVVQYIKRLEEAQSKRQEKLVEKHKEIRQQILDEKPKLQMELEQEYQDKFKRLPLEILEFVQEAMKGKVSEDSNHGSAPPSLASDPAKVNLKSPSSEEVQGENAGREFDTPL
B1 was tested, and the binding [3] was “binds”, the binding [4] was “binds” and the binding [5] was “no binding (condition: with YM-254890)”.
